Test results as given in the supplement of paper PMC3334620.
In all, about 33,000 sequences were measured (“E-score (-0.5 to 0.5)”: median about -0.032, highest 2% from about 0.36 on). This is one part of the list.

molecular target: T1, Sko1 (UniProt Q02100); assay: PBM E-score (8-mer binding enrichment) (E-score (-0.5 to 0.5)); higher = stronger / more preferred TF binding; most listed sequences are background and not binding sites; details: protein concentration: 200 nM; construct: GST-full length
T1 sequence: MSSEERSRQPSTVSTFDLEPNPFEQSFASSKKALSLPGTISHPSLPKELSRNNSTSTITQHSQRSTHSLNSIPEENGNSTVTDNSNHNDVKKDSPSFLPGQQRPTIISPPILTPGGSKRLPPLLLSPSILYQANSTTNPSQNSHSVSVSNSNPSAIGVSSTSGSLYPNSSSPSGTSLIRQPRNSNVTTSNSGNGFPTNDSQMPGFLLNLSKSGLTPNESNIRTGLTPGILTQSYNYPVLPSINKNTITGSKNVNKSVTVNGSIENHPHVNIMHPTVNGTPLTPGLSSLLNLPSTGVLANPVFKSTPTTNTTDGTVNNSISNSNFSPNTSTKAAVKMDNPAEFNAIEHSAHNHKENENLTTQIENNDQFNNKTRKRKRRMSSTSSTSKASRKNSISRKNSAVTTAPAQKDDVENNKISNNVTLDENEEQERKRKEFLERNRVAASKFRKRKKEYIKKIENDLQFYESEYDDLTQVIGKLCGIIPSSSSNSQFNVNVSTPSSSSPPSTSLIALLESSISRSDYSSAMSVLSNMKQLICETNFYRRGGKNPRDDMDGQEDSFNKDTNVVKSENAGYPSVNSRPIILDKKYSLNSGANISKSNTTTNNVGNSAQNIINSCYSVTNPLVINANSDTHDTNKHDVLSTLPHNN
Procedure, shortened: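 Masliner-normalised scans of fluorescent anti-GST signal were the basis for scoring. That signal came from GST-tagged yeast transcription factors applied at about 100-200 nM to double-stranded universal all-10-mer Agilent arrays on fresh or once-stripped slides. Each ungapped eight-base word, pooled with its reverse complement, received an E-score from the Universal PBM Analysis Suite.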

Sequence	PBM E-score
GACCCTAC	-0.0556
GGTACTCA	0.0274
ATAGCGAT	0.0688
GCACCATA	-0.0106
CTGCCGTA	-0.0775
TATCACAA	0.156
CTTTTGTC	0.0309
CCCTTCAC	-0.0956
GGTTCGTA	0.119
CGCTCCAC	-0.305
CATTTTAG	0.164
ACAGCCTC	-0.184
TCTTTACA	0.0605
AGCTAAAA	0.129
ATGGCATG	0.139
TAGAGCAA	-0.138
ATTCGAAG	0.0402
GTCGGCGA	-0.0906
TGATCGAA	0.0913
CAGCTCAG	-0.0505
AATGGTGT	0.108
ATATTTCC	0.0933
CCTGTCCC	-0.342
TATGCCGA	-0.0317
AGAACCTG	-0.192

Sequence	PBM E-score
ATGTCGTA	0.424
GATTAAAC	0.171
CGTGTCCA	0.0882
TAACGATA	0.319
AGGGACTC	-0.28
ACCAAGTG	-0.237
AGGGCGGA	-0.265
ACAGTTGC	0.121
ATTTACCA	0.109
CCGCTTCC	-0.273
CCACTTAA	0.0677
AGGTGCTC	-0.262
AAGAGATC	-0.137
CATCTACG	0.2
AGCCCCAC	-0.137
AAACTCGC	-0.187
ACAGTGGC	-0.0839
GGGCTGGA	-0.212
CGTTCAAG	0.0946
GCAGAGGA	-0.185
TCCCATAA	-0.145
AACACAGT	-0.0914
CAGTAACG	0.195
TACCTCGA	0.0363
GATACCGA	-0.0867

Sequence	PBM E-score
GAGAGTAC	0.111
GGATACCA	-0.014
AAGGTCGT	-0.0153
AGGGAGTC	-0.0522
AAAGCCTC	-0.206
AGTGGAGC	-0.325
ATAAATCA	0.199
CGGAGCTA	-0.138
AGGTGGCA	-0.152
CCGGTGAA	-0.14
TATGCCAA	0.127
AACTTGAC	0.181
CTACGGAA	0.157
GCATTAGA	0.116
CCCTGCAC	-0.197
GCGCCGAC	-0.128
GCCTGTTA	-0.133
GGCAACCA	-0.17
AGATGAAG	-0.115
ACTCATGG	-0.0551
ATTTCTTC	0.051
AGGGGCTG	-0.223
CCATTGCA	0.0605
CTCGAACA	0.163
CAATTGAC	0.105

Sequence	PBM E-score
AGTTCTAC	0.125
ACCGACCG	-0.193
CCGTAGCC	-0.259
ACTTACTG	0.0462
CCACCGCC	-0.24
ATTTGGCA	-0.0462
GAGACTCA	-0.119
CTGCTTAA	-0.00146
CTGCCCAG	-0.229
CCAGTTAG	0.0486
CTGAAGTA	0.0582
ACAACGTG	0.218
CAGCTAAG	-0.281
CGGCAACG	-0.0449
GGCTAGAC	-0.131
CTATCCTA	-0.162
CGGTAATC	-0.108
GCAAATCC	-0.0641
AGCATCCA	-0.238
ATGGTTAG	-0.0395
CTCCACAC	-0.197
AACCGGAG	-0.197
CTGCAAAG	-0.18
GGGGAGCA	-0.133
GCCGCCAC	-0.294

Sequence	PBM E-score
TAAGCGGA	-0.0919
CGTTAGCC	0.0984
CAGAACTA	-0.0397
CCCAACCC	-0.139
ACGCCACT	0.209
ATCCAATA	0.151
AGCTACCG	-0.255
AGTGTACG	0.237
CCGTTCTC	-0.104
AAATAGGA	0.158
AACTGCTG	-0.249
AGAGGGTA	-0.035
CGCAGCCG	-0.0841
CACTGACG	0.424
GATAATTA	0.284
CGCTCAAA	-0.0492
CCCCGGAG	-0.191
GTCACAAA	0.177
AATTCTCT	-0.0731
CAGTTTGA	-0.00061
ACACCTGT	-0.164
GCCGCTCC	-0.396
AAGGCGCT	-0.16
CGCTGCAA	0.0869
TATAAACA	0.196

Sequence	PBM E-score
CGCTGACG	0.389
TATGTGCA	0.0602
ACGAAACA	0.284
AAATTAAA	0.219
GTCTCCGA	-0.278
ACTGGCCA	-0.0192
AATCTGCC	-0.0515
GTCTGCCA	-0.00797
GTACCCTA	0.0237
AACGTCTT	0.328
GCATCAGA	0.113
CGTTTAAC	0.228
ACTAAACT	0.133
AATTGGCT	-0.0735
ATGACAAA	0.154
CGAGCTAG	-0.165
AAGCCACC	-0.375
CCTGAGAG	-0.265
ACCCGTTC	-0.183
AACCGCAT	0.0182
ATCGCGAC	-0.0742
AGTTCGCA	0.111
CCCAACGG	-0.346
ATCTAACC	0.0767
AGAGGACA	-0.169

Sequence	PBM E-score
CGAAGGCG	-0.141
GTGTCATA	0.298
GACAGGCC	-0.29
CGAAAGGC	-0.158
GCGGCAGA	-0.253
AAAATTGA	0.109
AGTTTGCC	-0.13
TGGTCTAA	-0.155
CTACTGTA	0.0799
CCCTACCA	-0.0655
CGCCGGTC	-0.213
CCGAGCCC	-0.297
ATAGTTAA	0.129
GACAGCTC	-0.209
GAAAGGAC	0.0992
GTTGAGCA	0.0589
GATTGTGA	-0.0468
CGAAGCGC	-0.00893
TACTCTCA	-0.00676
GGGACATA	-0.139
ATCTCATG	0.0116
CCTTGTCG	-0.208
